In the supplement of paper PMC8728848:
This is one part of the list.

Legend:
Test in all cases: glycan array binding signal (z-score within array); higher = stronger binding
Details in all cases: glycan notation: IUPAC condensed, linker removed
[1] = target: Neu5Ac(a2-3)Gal(b1-4)GlcNAc(b1-3)Gal(b1-4)[Fuc(a1-3)]GlcNAc
Method in brief: (§1)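 Glycan array data were curated from 3228 arrays in the Consortium for Functional Glycomics database and kept only where the protein sequence was available. Glycan names were converted to IUPAC-condensed notation, and columns mapping to the same glycan were averaged. The binding signal is a within-array Z-score, averaged across arrays of the same protein sequence at different concentrations or buffers and across linkers. Negative Z-scores can be read as non-binding.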

[2] = target: Neu5Ac(a2-3)Gal(b1-4)GlcNAc(b1-3)GalNAc
Method in brief: as §1

[3] = target: Neu5Ac(a2-3)Gal(b1-4)GlcNAc(b1-3)[Neu5Ac(a2-3)Gal(b1-4)GlcNAc(b1-6)]GalNAc
Method in brief: as §1

[4] = target: Neu5Ac(a2-3)Gal(b1-4)GlcNAc(b1-6)GalNAc
Method in brief: as §1

[5] = target: Neu5Ac(a2-3)Gal(b1-4)GlcNAc(b1-6)[Gal(b1-3)]GalNAc
Method in brief: as §1

[6] = target: Neu5Ac(a2-3)Gal(b1-4)GlcNAc(b1-6)[Neu5Ac(a2-3)Gal(b1-3)]GalNAc
Method in brief: as §1

[7] = target: Neu5Ac(a2-3)Gal(b1-4)GlcNAc6S
Method in brief: as §1

[8] = target: Neu5Ac(a2-3)Gal(b1-4)[Fuc(a1-3)]GlcNAc
Method in brief: as §1

[9] = target: Neu5Ac(a2-3)Gal(b1-4)[Fuc(a1-3)]GlcNAc(b1-2)Man
Method in brief: as §1

[10] = target: Neu5Ac(a2-3)Gal(b1-4)[Fuc(a1-3)]GlcNAc(b1-3)Gal
Method in brief: as §1

[11] = target: Neu5Ac(a2-3)Gal(b1-4)[Fuc(a1-3)]GlcNAc(b1-3)Gal(b1-4)GlcNAc
Method in brief: as §1

[12] = target: Neu5Ac(a2-3)Gal(b1-4)[Fuc(a1-3)]GlcNAc(b1-3)Gal(b1-4)[Fuc(a1-3)]GlcNAc(b1-3)Gal(b1-4)[Fuc(a1-3)]GlcNAc
Method in brief: as §1

[13] = target: Neu5Ac(a2-3)Gal(b1-4)[Fuc(a1-3)]GlcNAc(b1-3)GalNAc
Method in brief: as §1

[14] = target: Neu5Ac(a2-3)Gal(b1-4)[Fuc(a1-3)]GlcNAc(b1-6)[Gal(b1-3)]GalNAc
Method in brief: as §1

[15] = target: Neu5Ac(a2-3)Gal(b1-4)[Fuc(a1-3)]GlcNAc(b1-6)[Neu5Ac(a2-3)Gal(b1-3)]GalNAc
Method in brief: as §1

[16] = target: Neu5Ac(a2-3)Gal(b1-4)[Fuc(a1-3)]GlcNAc6S
Method in brief: as §1

[17] = target: Neu5Ac(a2-3)Gal6S(b1-4)GlcNAc
Method in brief: as §1

[18] = target: Neu5Ac(a2-3)Gal6S(b1-4)[Fuc(a1-3)]GlcNAc
Method in brief: as §1

Neu5Ac(a2-3)GalNAc = target: Neu5Ac(a2-3)GalNAc
Method in brief: as §1

[19] = target: Neu5Ac(a2-3)GalNAc(b1-4)GlcNAc
Method in brief: as §1

[20] = target: Neu5Ac(a2-3)[GalNAc(b1-4)]Gal(b1-4)Glc
Method in brief: as §1

[21] = target: Neu5Ac(a2-3)[GalNAc(b1-4)]Gal(b1-4)GlcNAc
Method in brief: as §1

[22] = target: Neu5Ac(a2-3)[GalNAc(b1-4)]Gal(b1-4)GlcNAc(b1-3)GalNAc
Method in brief: as §1

[23] = target: Neu5Ac(a2-3)[Neu5Ac(a2-6)]GalNAc
Method in brief: as §1

Neu5Ac(a2-6)Gal = target: Neu5Ac(a2-6)Gal
Method in brief: as §1

[24] = target: Neu5Ac(a2-6)Gal(b1-3)GlcNAc(b1-3)[Gal(b1-4)GlcNAc(b1-6)]Gal(b1-4)Glc
Method in brief: as §1

Neu5Ac(a2-6)Gal(b1-4)Glc = target: Neu5Ac(a2-6)Gal(b1-4)Glc
Method in brief: as §1

[25] = target: Neu5Ac(a2-6)Gal(b1-4)GlcNAc
Method in brief: as §1

[26] = target: Neu5Ac(a2-6)Gal(b1-4)GlcNAc(b1-2)Man
Method in brief: as §1

[27] = target: Neu5Ac(a2-6)Gal(b1-4)GlcNAc(b1-2)Man(a1-3)Man(b1-4)GlcNAc(b1-4)GlcNAc
Method in brief: as §1

[28] = target: Neu5Ac(a2-6)Gal(b1-4)GlcNAc(b1-2)Man(a1-3)[Gal(b1-4)GlcNAc(b1-2)Man(a1-6)]Man(b1-4)GlcNAc(b1-4)GlcNAc
Method in brief: as §1

[29] = target: Neu5Ac(a2-6)Gal(b1-4)GlcNAc(b1-2)Man(a1-3)[GlcNAc(b1-2)Man(a1-6)]Man(b1-4)GlcNAc(b1-4)GlcNAc
Method in brief: as §1

[30] = target: Neu5Ac(a2-6)Gal(b1-4)GlcNAc(b1-2)Man(a1-3)[GlcNAc(b1-4)][Neu5Ac(a2-6)Gal(b1-4)GlcNAc(b1-2)Man(a1-6)]Man(b1-4)GlcNAc(b1-4)GlcNAc
Method in brief: as §1

[31] = target: Neu5Ac(a2-6)Gal(b1-4)GlcNAc(b1-2)Man(a1-3)[Man(a1-6)]Man(b1-4)GlcNAc(b1-4)GlcNAc
Method in brief: as §1

[32] = target: Neu5Ac(a2-6)Gal(b1-4)GlcNAc(b1-2)Man(a1-3)[Neu5Ac(a2-3)Gal(b1-4)GlcNAc(b1-2)Man(a1-6)]Man(b1-4)GlcNAc(b1-4)GlcNAc
Method in brief: as §1

[33] = target: Neu5Ac(a2-6)Gal(b1-4)GlcNAc(b1-2)Man(a1-3)[Neu5Ac(a2-6)Gal(b1-4)GlcNAc(b1-2)Man(a1-6)]Man(b1-4)GlcNAc(b1-4)GlcNAc
Method in brief: as §1

[34] = target: Neu5Ac(a2-6)Gal(b1-4)GlcNAc(b1-2)Man(a1-3)[Neu5Ac(a2-6)Gal(b1-4)GlcNAc(b1-2)Man(a1-6)]Man(b1-4)GlcNAc(b1-4)[Fuc(a1-6)]GlcNAc
Method in brief: as §1

[35] = target: Neu5Ac(a2-6)Gal(b1-4)GlcNAc(b1-2)Man(a1-6)Man(b1-4)GlcNAc(b1-4)GlcNAc
Method in brief: as §1

[36] = target: Neu5Ac(a2-6)Gal(b1-4)GlcNAc(b1-2)Man(a1-6)[Gal(b1-4)GlcNAc(b1-2)Man(a1-3)]Man(b1-4)GlcNAc(b1-4)GlcNAc
Method in brief: as §1

[37] = target: Neu5Ac(a2-6)Gal(b1-4)GlcNAc(b1-2)Man(a1-6)[GlcNAc(b1-2)Man(a1-3)]Man(b1-4)GlcNAc(b1-4)GlcNAc
Method in brief: as §1

[38] = target: Neu5Ac(a2-6)Gal(b1-4)GlcNAc(b1-2)Man(a1-6)[Man(a1-3)]Man(b1-4)GlcNAc(b1-4)GlcNAc
Method in brief: as §1

[39] = target: Neu5Ac(a2-6)Gal(b1-4)GlcNAc(b1-2)[Neu5Ac(a2-6)Gal(b1-4)GlcNAc(b1-4)]Man(a1-3)[GlcNAc(b1-4)][Neu5Ac(a2-6)Gal(b1-4)GlcNAc(b1-2)[Neu5Ac(a2-6)Gal(b1-4)GlcNAc(b1-6)]Man(a1-6)]Man(b1-4)GlcNAc(b1-4)GlcNAc
Method in brief: as §1

[40] = target: Neu5Ac(a2-6)Gal(b1-4)GlcNAc(b1-2)[Neu5Ac(a2-6)Gal(b1-4)GlcNAc(b1-4)]Man(a1-3)[GlcNAc(b1-4)][Neu5Ac(a2-6)Gal(b1-4)GlcNAc(b1-4)Man(a1-6)]Man(b1-4)GlcNAc(b1-4)GlcNAc
Method in brief: as §1

[41] = target: Neu5Ac(a2-6)Gal(b1-4)GlcNAc(b1-2)[Neu5Ac(a2-6)Gal(b1-4)GlcNAc(b1-6)]Man(a1-6)[Neu5Ac(a2-6)Gal(b1-4)GlcNAc(b1-2)Man(a1-3)][GlcNAc(b1-4)]Man(b1-4)GlcNAc(b1-4)GlcNAc
Method in brief: as §1

[42] = target: Neu5Ac(a2-6)Gal(b1-4)GlcNAc(b1-3)Gal(b1-3)GlcNAc
Method in brief: as §1

B1: Banana lectin (Musa acuminata) (protein)
chain: MNGAIKVGAWGGNGGSAFDMGPAYRIISVKIFSGDVVDGVDVTFTYYGKTETRHYGGSGGTPHEIVLQEGEYLVGMAGEVANYHGAVVLGKLGFSTNKKAYGPFGNTGGTPFSLPIAAGKISGFFGRGGKFLDAIGVYLEPLEHHHHHH
[1]
  glycan array binding signal (z-score): -0.185
[2]
  glycan array binding signal (z-score): -0.187
[3]
  glycan array binding signal (z-score): -0.212
[4]
  glycan array binding signal (z-score): -0.217
[5]
  glycan array binding signal (z-score): -0.171
[6]
  glycan array binding signal (z-score): -0.131
[7]
  glycan array binding signal (z-score): -0.202
[8]
  glycan array binding signal (z-score): -0.22
[9]
  glycan array binding signal (z-score): -0.209
[10]
  glycan array binding signal (z-score): -0.201
[11]
  glycan array binding signal (z-score): -0.183
[12]
  glycan array binding signal (z-score): -0.265
[13]
  glycan array binding signal (z-score): -0.165
[14]
  glycan array binding signal (z-score): -0.234
[15]
  glycan array binding signal (z-score): -0.189
[16]
  glycan array binding signal (z-score): -0.201
[17]
  glycan array binding signal (z-score): -0.212
[18]
  glycan array binding signal (z-score): -0.205
Neu5Ac(a2-3)GalNAc
  glycan array binding signal (z-score): -0.199
[19]
  glycan array binding signal (z-score): -0.2
[20]
  glycan array binding signal (z-score): -0.132
[21]
  glycan array binding signal (z-score): -0.169
[22]
  glycan array binding signal (z-score): -0.184
[23]
  glycan array binding signal (z-score): -0.219
Neu5Ac(a2-6)Gal
  glycan array binding signal (z-score): -0.233
[24]
  glycan array binding signal (z-score): -0.22
Neu5Ac(a2-6)Gal(b1-4)Glc
  glycan array binding signal (z-score): -0.279
[25]
  glycan array binding signal (z-score): -0.259
[26]
  glycan array binding signal (z-score): -0.201
[27]
  glycan array binding signal (z-score): -0.133
[28]
  glycan array binding signal (z-score): -0.225
[29]
  glycan array binding signal (z-score): 0.225
[30]
  glycan array binding signal (z-score): -0.218
[31]
  glycan array binding signal (z-score): 0.946
[32]
  glycan array binding signal (z-score): 0.33
[33]
  glycan array binding signal (z-score): -0.198
[34]
  glycan array binding signal (z-score): -0.075
[35]
  glycan array binding signal (z-score): -0.19
[36]
  glycan array binding signal (z-score): 0.024
[37]
  glycan array binding signal (z-score): 0.417
[38]
  glycan array binding signal (z-score): 3.56
[39]
  glycan array binding signal (z-score): -0.189
[40]
  glycan array binding signal (z-score): -0.316
[41]
  glycan array binding signal (z-score): -0.204
[42]
  glycan array binding signal (z-score): -0.225
